Data as given in the supplement of paper PMC3334620.
The full ranking holds about 33,000 sequences; the median of “E-score (-0.5 to 0.5)” is about -0.054, and the highest 2% start at about 0.39. The list shows a part of the results.

Biological target: Ylr278c (UniProt Q05854)
Experiment: PBM E-score (8-mer binding enrichment) (E-score (-0.5 to 0.5)); higher = stronger / more preferred TF binding; most listed sequences are background and not binding sites
Settings: protein concentration: 200 nM; construct: GST-DNA-binding domain
Method in brief: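 The E-score, a modified Wilcoxon-Mann-Whitney statistic, was computed by the Universal PBM Analysis Suite for every ungapped eight-base word pooled with its reverse complement. Scans behind it were normalised with masliner after bound GST-tagged yeast transcription factors were detected with fluorescent anti-GST. The proteins, at about 100-200 nM, had been applied to universal all-10-mer Agilent arrays made double-stranded by primer extension.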

| Sequence | PBM E-score |
| --- | --- |
| CAACCATA | -0.136 |
| CGCGTGCA | -0.0498 |
| CGAATCAA | 0.00118 |
| GCGTAAGC | -0.00035 |
| CCGTGTAG | 0.0296 |
| CAGCTATA | -0.0641 |
| ATGCATAG | -0.158 |
| CGCTAAGA | 0.0342 |
| CACGGGTC | 0.016 |
| CGCCCCTC | 0.0739 |
| GGATTCCA | 0.207 |
| GACGGTAC | 0.018 |
| ATCACATA | -0.172 |
| CACCATGA | -0.00895 |
| CAGATCTA | -0.168 |
| GATGAGCC | -0.0805 |
| GGCTTCCA | 0.0292 |
| ATGATAAC | -0.0976 |
| ATGCAACG | -0.0447 |
| AGGTATGA | -0.111 |
| ACAACGTC | 0.141 |
| ATGACCGC | 0.131 |
| CTTTCCGA | 0.354 |
| CGCGAACA | 0.0712 |
| AATTGCTC | -0.0378 |

| Sequence | PBM E-score |
| --- | --- |
| ACTGATCA | -0.0604 |
| CCGCTTTA | 0.195 |
| GCCCGAAA | 0.236 |
| ATAGATTA | 0.00461 |
| CATCGCAG | -0.0787 |
| GCCGTCCA | 0.0661 |
| AGACGCTG | -0.109 |
| GGGTGTTA | -0.0335 |
| GACGGAGC | 0.378 |
| ACAATCAA | -0.0226 |
| CCCTAGCG | -0.352 |
| AACGACAA | 0.0288 |
| AAATGATG | 0.0314 |
| CACATTCG | 0.0166 |
| AGTCCACG | -0.0171 |
| ATTACCGA | 0.224 |
| ATCGGTGA | 0.114 |
| AGATTATC | -0.0114 |
| AATGCTCA | -0.162 |
| AGCGAAGG | -0.0577 |
| CCGTTATC | 0.157 |
| CTCCCTAA | -0.143 |
| CAGCTGTA | -0.0449 |
| CACCGGTA | 0.297 |
| TATTCGAA | -0.174 |

| Sequence | PBM E-score |
| --- | --- |
| AATGTACT | -0.00461 |
| CTAGTCCC | -0.204 |
| TGACGGCA | 0.118 |
| CAACAGAC | -0.0435 |
| CAGAAAAC | -0.175 |
| GTCAACAC | -0.0756 |
| ACGGCTCG | 0.128 |
| CCATCGTC | 0.0342 |
| CACTGGTA | -0.203 |
| GGTACACC | -0.0332 |
| AATAGAAT | -0.191 |
| ATCACTAG | -0.204 |
| GTACGCAC | -0.171 |
| GAGTCCAA | -0.0736 |
| CCAGAACG | -0.14 |
| ACCGGTCA | 0.231 |
| ATCGCCCG | 0.267 |
| AGCAGGCT | -0.169 |
| CTGACTTA | -0.054 |
| ACTTCTCT | -0.271 |
| AATTGCCC | 0.118 |
| CTTACATC | -0.0831 |
| GAGACGGA | 0.325 |
| TACCGTGA | -0.011 |
| ACTGTCAA | -0.184 |

| Sequence | PBM E-score |
| --- | --- |
| ATAGAGCG | -0.00142 |
| CTTGAGTC | -0.105 |
| ATGGTGCA | -0.126 |
| ATTCGGAC | 0.392 |
| GGCACCAA | 0.17 |
| GATGTAGA | -0.192 |
| AACGCAAC | -0.0186 |
| ACTAATAT | -0.0231 |
| ATCGGTCG | 0.175 |
| GGTCTACA | -0.135 |
| AAAGCTCG | -0.0573 |
| GTAAATGA | 0.024 |
| AATTACAT | 0.0332 |
| CGGGACAA | 0.196 |
| ACATGAAA | -0.224 |
| CATATGGC | -0.0951 |
| CAGATGGC | -0.0558 |
| GGTCACTA | -0.038 |
| GTTGGTGA | -0.0775 |
| ATTTGAGG | -0.151 |
| CAGGGAAC | -0.262 |
| AAGAACCA | -0.108 |
| AATACGCT | 0.0256 |
| AATTCAGT | -0.178 |
| AAATGTGC | 0.214 |

| Sequence | PBM E-score |
| --- | --- |
| TGCGACCA | 0.0635 |
| GGCTCCGA | 0.393 |
| CGTGCAGA | -0.22 |
| CCGTGTGA | 0.126 |
| TCTCGGAA | 0.414 |
| AATTAAGG | -0.158 |
| CATTCGAG | -0.112 |
| AGCCAAAG | -0.187 |
| GACTCATC | -0.227 |
| CAGGTGCC | -0.0337 |
| ACGCACGG | 0.126 |
| ATTCGGTA | 0.0941 |
| GTCGATAA | -0.152 |
| AGATGGAC | 0.0253 |
| AAAGAAGT | -0.0518 |
| ACTGAGCA | -0.249 |
| CAACTTGA | 0.0106 |
| ATGGGGGA | -0.158 |
| AACGAATT | -0.0276 |
| GAAGATTA | 0.0826 |
| TCATCACA | -0.258 |
| ACACAGCT | -0.174 |
| TAGGTGCA | -0.176 |
| CCAACAAA | -0.142 |
| AAACCTAA | 0.0256 |

| Sequence | PBM E-score |
| --- | --- |
| GAAGAACA | 0.137 |
| ACAGGAAG | -0.0603 |
| GCTAACCC | 0.00081 |
| CCCAGCAA | -0.0346 |
| CGAGAGGA | -0.15 |
| ATAGCTAG | -0.281 |
| GTCAAGGA | -0.166 |
| CATTGCAG | -0.292 |
| CGACGGTA | 0.169 |
| AGTTGACC | 0.183 |
| CCAGAGAC | -0.238 |
| GATTTCTA | 0.238 |
| ACGAATGG | -0.027 |
| AATGCGCT | -0.0327 |
| CAACGCTA | -0.0359 |
| CTTTGGGC | 0.124 |
| CGCAACCA | 0.113 |
| GACCGTGA | 0.085 |
| AAAGCAAA | -0.00658 |
| CACCCATC | -0.0814 |
| CTGTGGCC | -0.0408 |
| AGCTGTTC | -0.116 |
| AAACAGGT | -0.193 |
| CAATTAAG | 0.0362 |
| TCAACTCA | -0.0706 |

| Sequence | PBM E-score |
| --- | --- |
| GAGCCAAA | -0.0664 |
| AATCAGGT | -0.0317 |
| AAGTTCAA | 0.118 |
| AATCTCCC | 0.0563 |
| AGCTACCA | -0.127 |
| CTATAAAG | 0.0306 |
| GATTTGCC | 0.117 |
| CCCTTTGA | -0.21 |
| GCCGCACA | 0.0283 |
| ATATAACC | -0.0128 |
| AAACCTAG | -0.173 |
| GCAGCCCA | -0.0644 |
| AGTTTGGA | -0.153 |
| AAAATATA | 0.0225 |
| ATGCAAGG | -0.145 |
| GCCAGGAC | -0.127 |
| TAGGGACA | -0.0143 |
| GGAAGAAA | -0.00281 |
| AAGAAGGG | -0.269 |
| AGCGTGCG | 0.186 |
| CCATATAA | -0.139 |
| AATACGAA | -0.0523 |
